# Test results as given in PubChem BioAssay AID1645882 (National Center for Advancing Translational Sciences (NCATS), 2021).
# About 120 (0.75%) of roughly 16,000 compounds were called active. Inconclusive results (about 4%) are left out. Calls follow the shape of the dose curve; as a rule, active = well fitted inhibition curve with a large enough effect; inconclusive = small, poorly fitted or top-dose-only effect; inactive = no such curve, though single readings can be large or run the other way. The list shows a part of the results.
# Target: Rap guanine nucleotide exchange factor 3 (Homo sapiens) (UniProt O95398)
# Sequence of UniProt O95398 (O95398 whole entry, looked up): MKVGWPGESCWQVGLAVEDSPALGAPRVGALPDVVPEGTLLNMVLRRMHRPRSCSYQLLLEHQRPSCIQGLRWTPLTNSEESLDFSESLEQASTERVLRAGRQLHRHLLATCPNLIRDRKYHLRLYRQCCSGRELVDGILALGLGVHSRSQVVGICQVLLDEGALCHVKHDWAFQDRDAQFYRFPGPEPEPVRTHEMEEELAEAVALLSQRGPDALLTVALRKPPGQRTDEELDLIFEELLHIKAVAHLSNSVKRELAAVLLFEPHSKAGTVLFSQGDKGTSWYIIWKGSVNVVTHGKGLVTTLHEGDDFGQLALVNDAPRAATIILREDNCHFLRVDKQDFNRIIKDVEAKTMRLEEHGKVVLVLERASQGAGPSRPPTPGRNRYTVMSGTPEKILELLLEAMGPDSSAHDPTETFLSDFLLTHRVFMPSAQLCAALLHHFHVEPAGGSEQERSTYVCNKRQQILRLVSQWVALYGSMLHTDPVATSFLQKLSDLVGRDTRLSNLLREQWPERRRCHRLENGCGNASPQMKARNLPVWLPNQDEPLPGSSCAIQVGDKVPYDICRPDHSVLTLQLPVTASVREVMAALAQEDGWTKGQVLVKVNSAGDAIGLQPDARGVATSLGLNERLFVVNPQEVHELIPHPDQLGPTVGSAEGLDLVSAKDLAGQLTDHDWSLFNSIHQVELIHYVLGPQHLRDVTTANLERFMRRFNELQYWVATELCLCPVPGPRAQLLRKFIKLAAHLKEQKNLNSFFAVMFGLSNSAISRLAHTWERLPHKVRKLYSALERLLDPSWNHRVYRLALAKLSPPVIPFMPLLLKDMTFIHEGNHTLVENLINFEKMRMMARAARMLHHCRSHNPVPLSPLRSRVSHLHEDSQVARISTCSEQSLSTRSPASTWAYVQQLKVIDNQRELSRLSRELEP
# Experiment: Validation qHTS for antagonist of cAMP-regulated guanine nucleotide exchange factor 3 (EPAC1);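 also: plate controls were DMSO for no effect and ATA control for full effect; nearly all actives have a fitted effect of over 75% in size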
# Settings: EPAC1 Rap1B-BODIPY-GDP exchange, fluorescence; series mostly up to 150 µM; activity change, negative = inhibition: at the top concentration
# Procedure, shortened: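 Nucleotide exchange followed as fluorescence loss when BODIPY-GDP leaves Rap1B (480 nm excitation, 540 nm emission), read at 5 min intervals over 30 min. Reaction: 100 nM EPAC1, 250 nM RAP1B-BODIPY-GDP, 50 uM GDP; ATA and DMSO define normalization.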
row,Compound,"activity change, negative = inhibition"
1,Nc1cc(N2CCCCC2)nc(N)[n+]1OS(=O)(=O)[O-],inactive
2,C[C@@H]1CC[C@@]2(OC1)OC1CC3C4CC=C5CC(O)CCC5(C)C4CCC3(C)C1[C@@H]2C (stereo not given in full),inactive: 8.3%
3,COc1ccc(CNc2ccnc(-c3ccccc3C(F)(F)F)n2)c(OC)c1,inactive: -5.59%
4,COc1c(O)cc2c(c1O)C1OC(CO)C(O)[C@H](O)[C@H]1OC2=O (stereo not given in full),inactive: 1.03%
5,CCn1c(-c2ccccc2F)nc2cc(NC(C)=O)cc(C(=O)NCc3ncc(C)[nH]3)c21,inactive: 3.7%
6,COc1cc(=O)n2c(c1C(=O)NCc1ccco1)CCN(Cc1c(F)cccc1F)CC2,inactive: 13.9%
7,C[N+]1(C)CC(O)[C@H](C(=O)[O-])C1 (stereo not given in full),inactive: 25.6%
8,Clc1ccc2nc[nH]c2c1,inactive: 28.5%
9,COc1cc(-c2noc(C)c2C#CCO)cc(OC)c1OC,inactive: 13%
10,O[C@@H]1CO[C@H]2[C@@H]1OC[C@@H]2O,inactive: 18.5%
11,Cc1cc(-n2nc3ccc(Cl)cc3n2)c(O)c(C(C)(C)C)c1,inactive: 4.91%
12,O=C([C@@H]1C[C@@H](Sc2nc3ccccc3[nH]2)CN1Cc1ccc(Cl)cc1)N1CCN(c2ccccc2F)CC1,inactive: 9.89%
13,COc1ccc(C(=O)N2CCC3(CCCN(Cc4nccs4)C3)CC2)cc1,inactive: 11.5%
14,COC1=C(OC)C(=O)c2ccccc2C1=O,inactive: 3.08% [at 75.8 µM]
15,CS(=O)(=O)N1CCC2(CC1)CN(c1ccccn1)C2,inactive: 20.9%
16,Oc1cc(-c2nc3ccccc3s2)cc2c1OCCN(Cc1cn[nH]c1-c1ccc(Cl)cc1)C2,inactive: 4.53%
17,N#Cc1ccccc1-c1ccc2ncnc(NCc3cccs3)c2c1,inactive: 20.9%
18,CC(C)C[C@@H](CN=[N+]=[N-])N1CCN(C)CCC1=O,inactive: -6.63%
19,COc1cccc(Cn2c(=O)cnc3cnc(N4CCOCC4)nc32)c1,inactive: 9.57%
20,O=C(c1cccc(F)c1)N1CCC2(CC1)CCN(c1ccccn1)CC2,inactive: 13.7%

row,Compound,"activity change, negative = inhibition"
1,COCCn1c(=O)c(-c2ccc(Cl)cc2)nc2cnc(Oc3ccc(OC)cc3)nc21,inactive: 0.9%
2,COc1ncc2nc(C)c(=O)n(Cc3ccc(F)cc3)c2n1,inactive: 13.2%
3,Cc1cnc(CNc2ncnc3ccc(-c4cccc(C#N)c4)cc23)cn1,inactive: 17.4%
4,OCC1OC(n2cnc3c(Cl)nc(Cl)nc32)C(O)C1O (stereo not given),inactive: 14.6%
5,CNc1ncncc1-c1ccccc1CN(C)C,inactive: 11.8%
6,CC(=O)c1ccc(-c2cc(F)cc3c2OC(CNC(=O)C(C)N2CCOCC2)C3)s1 (stereo not given),inactive: 7.38%
7,CCCCCC1C(=O)CCC1CC(=O)O (stereo not given),inactive: 17.8%
8,CC(C)CCC[C@@H](C)[C@H]1CC[C@H]2[C@@H]3CC=C4C[C@@H](O)CC[C@]4(C)[C@H]3CC[C@]12C,inactive: 16.4%
9,CC(C)C[C@H](NC(=O)[C@H](Cc1ccccc1)NC(=O)CNC(=O)CNC(=O)[C@@H](N)Cc1ccc(O)cc1)C(=O)N[C@@H](CCCN=C(N)N)C(=O)N[C@@H](CCCN=C(N)N)C(=O)N[C@@H](CCC(N)=O)C(=O)N[C@@H](Cc1ccccc1)C(=O)N[C@@H](CCCCN)C(=O)N[C@H](C(=O)N[C@H](C(=O)N[C@H](C(=O)O)[C@@H](C)O)C(C)C)C(C)C,inactive: 8.64% [at 15.3 µM]
10,O=C(/C=C/c1ccccc1)OCc1ccccc1,inactive: -2.35%
11,COc1ccc(-c2nc3cnc(N4CCOCC4)nc3n(-c3ccc(OC)cc3)c2=O)cc1,inactive: -20.3%
12,O=C(CN1CCN(Cc2ccc3c(c2)OCO3)CC1)N1c2ccccc2Sc2ccccc21,inactive: -20.4%
13,Nc1ccn([C@@H]2O[C@H](CO)[C@@H](O)[C@H]2O)c(=O)n1,inactive: -4.45%
14,CN(C)CCC(c1ccccc1)c1ccccn1 (stereo not given),inactive
15,COc1cccc(-c2ccc3ncnc(N(C)C)c3c2)c1,inactive: -21.5%
16,C=CC(C1=CC(=O)C(OC)=CC1=O)c1ccc(O)cc1 (stereo not given),inactive: 10.2%
17,CC1=CCC(C(C)(C)O)CC1 (stereo not given),inactive: 15.9%
18,COc1ccc(NC(=O)N2CC[C@@]3(CCCN(C(=O)c4ccncc4)C3)C2)cc1,inactive: 16.2%
19,CNc1nc(-c2ccccc2Cl)nc2ccccc12,inactive: 0.228%
20,CC(=O)ON(C(C)=O)c1ccc(/C=C2/C=Cc3ccccc32)cc1,inactive: 1.7%

row,Compound,"activity change, negative = inhibition"
1,CN(C)C(=O)c1ccc(-c2cc(-n3ccnc3)ncn2)cc1,inactive: 9.09%
2,C[C@H]1C[C@]2(O[C@@H]2C)C(=O)O[C@@H]2CCN(C)C/C=C(/COC(=O)[C@]1(C)O)C2=O,inactive: 13.5%
3,CCSc1ccc2c(c1)N(CCCN1CCN(C)CC1)c1ccccc1S2,inactive: 21.8% [at 75.8 µM]
4,O=C(c1csnn1)N1CCC2(CCCN(c3ccccc3)C2)CC1,inactive: 0.413%
5,Cc1c(O)cccc1C(=O)N[C@@H](CSc1ccccc1)[C@H](O)CN1C[C@H]2CCCC[C@H]2C[C@H]1C(=O)NC(C)(C)C,inactive: -2.53%
6,CCCCCCCCCCCCCCCCO,inactive: 16.5%
7,CO/N=C(\C(=O)N[C@@H]1C(=O)N2C(C(=O)O)=C(CSc3nc(C)c(CC(=O)O)s3)CS[C@H]12)c1csc(N)n1,inactive: 19.5%
8,CC(=O)Nc1cc(C(=O)N2CCc3c(Cl)cccc3C2)cc2ncn(CCc3ccccn3)c12,inactive: 4.8%
9,CCN1/C(=C/C(C)=O)Sc2ccc(OC)cc21,inactive: 7.75% [at 75.8 µM]
10,Cc1noc(C)c1-c1ccc2ncnc(Nc3ccccc3)c2c1,inactive: 14.8%
11,C[C@H]1c2cccc(O)c2C(O)=C2C(=O)[C@]3(O)C(O)=C(C(N)=O)C(=O)[C@@H](N(C)C)[C@@H]3[C@@H](O)[C@@H]21,inactive
12,CS(=O)(=O)Nc1cccc(-c2nc(-n3ccnc3)c3ccccc3n2)c1,inactive: -15%
13,O=S1(=O)[C@H]2C[C@@H]3C=C[C@@]2(CN1Cc1cccc(C(F)(F)F)c1)O3,inactive: -0.554%
14,CO[C@@H]1[C@@H](OC)[C@H](C)[C@@](O)(CC(=O)O)O[C@H]1[C@H](C)[C@H]1O[C@@]2(CC[C@@](C)([C@H]3CC[C@@](C)([C@@H]4O[C@@H]([C@H]5O[C@](C)(O)[C@H](C)C[C@@H]5C)C[C@@H]4OC4C[C@H](OC)[C@@H](OC)[C@H](C)O4)O3)O2)C[C@H](O)[C@H]1C (stereo not given in full),inactive: 22.9%
15,CN(CC1COCCO1)C(=O)c1cnn(-c2ncc3c(n2)-c2ccccc2CCC3)c1C1CC1 (stereo not given),inactive: 6.91%
16,COc1ccccc1N1CCN(CC2CN3C(=O)N(C)c4ccccc4C3=N2)CC1 (stereo not given),inactive: 36.9%
17,C=CCc1ccccc1OCC(O)CNC(C)C (stereo not given),inactive
18,CC(=O)OC(C)C[N+](C)(C)C (stereo not given),inactive
19,CCCCOc1ccc(CC(=O)NO)cc1,inactive
20,CN(C)c1ccc(/C=C2\C(=O)Nc3ccccc32)cc1,inactive: -9.59% [at 75.8 µM]
